In PubChem BioAssay AID2546 (National Center for Advancing Translational Sciences (NCATS), 2010):
Screen size: about 310,000 compounds; about 11,000 (3.5%) were called active. Inconclusive results, whose numbers are uncertain, are shown with a selection of clear calls. Calls follow the shape of the dose curve; as a rule, active = well fitted inhibition curve with a large enough effect; inconclusive = small, poorly fitted or top-dose-only effect, or effect the other way; inactive = flat fitted curve, though single readings scatter. No potency is given beside an inconclusive call; the fits are too rough.

Test: VP16 counterscreen qHTS for inhibitors of ROR gamma transcriptional activity;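 also: Gal4-VP16 expression switched on by copper sulfate through the metallothionein promoter; nearly all actives have a fitted effect of over 50% in size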
Conditions: Drosophila S2 Gal4-VP16 UAS-luciferase, luminescence, 20 h; activity, negative = inhibition: at 53.6 µM (top of the series)
% is scaled to controls: 0 for no effect and ±100 for the full control effect; potency is read from the fitted curve at half-maximal effect; tags tell the direction and shape of the fitted curve.

Compound	activity, negative = inhibition	Potency
Cc1onc(-c2c(F)cccc2Cl)c1C(=O)OCC(=O)c1c(N)n(C)c(=O)n(C)c1=O	inactive: -9.08%	
Cc1cc(N2CCN(C)CC2)nc2ccc(NC(=O)c3ccc4c(c3)OCO4)cc12	inactive: 9.07%	
Cc1ccc(Cl)c(NC(=O)CCl)c1Cl		inconclusive [inhibitor, single point]
Cc1ccc(C(=O)CSc2cnc3ccccc3n2)cc1C		inconclusive [inhibitor, single point]
COc1ccc(CNc2nccs2)cc1OC	inactive: -9.74%	
CCCn1c(SCC(=O)Nc2ccccc2Oc2ccccc2)n[nH]c1=O		inconclusive [inhibitor, single point]
CC(C)(C)c1ccc(C(=O)O/N=C(\N)c2ccccc2)cc1		active: 6.31 µM
CCCc1ccc(-c2csc(NC(=O)Cc3cccs3)n2)cc1		inconclusive [inhibitor, single point]
Cc1ccc(C(=O)Cn2cccn2)cc1		inconclusive [activator, partial curve]
Cc1cc(/C=C2\Sc3ccccc3N2C)cc(C)[n+]1CC1CCCO1 (stereo not drawn)		active: 2 µM
Cn1c(=O)c(-[n+]2ccccc2)c([O-])c2ccccc21	inactive: 8.28%	
Cc1ccccc1C(=O)NNC(=O)c1ccc(Br)cc1	inactive: 20.3%	
CCCOc1ccc(/C=N/NC(=O)c2ccc3c(c2)OCO3)c(OCCC)c1		inconclusive [inhibitor, single point]
COc1ccc(NC(=S)NC(=O)/C=C/c2ccc(F)cc2)cc1	inactive: -13.5%	
COc1ccc(C(=O)n2nc(C)cc2Nc2ccccc2)cc1		inconclusive [inhibitor, single point]
COc1cc2c(c(OC)c1OC)-c1c(cc3c(c1OC)OCO3)C[C@H](C)[C@@](C)(O)C2	inactive: 2.26%	
CCn1c(C(O)c2cc(OC)c(OC)c(OC)c2)nc2ccccc21 (stereo not drawn)		inconclusive [inhibitor, single point]
CN(C)S(=O)(=O)c1cccc(NC(=S)N2CCc3ccccc32)c1		inconclusive [inhibitor, single point]
COc1cc(-c2n[nH]c(=S)n2-c2cc(C(F)(F)F)ccc2Cl)cc(OC)c1OC		inconclusive [inhibitor, single point]
CCOc1ccc(/C=C/C(=O)c2ccccc2)cc1		inconclusive [inhibitor, single point]
CC[C@@]1(c2ccccc2)NC(=O)NC1=O	inactive: 1.75%	
Cc1ccc(Cl)cc1N(Cc1ccc(C(=O)NCc2cccnc2)cc1)S(=O)(=O)c1ccccc1		inconclusive [inhibitor, single point]
Cc1ccc([N+](=O)[O-])c(C(=O)N/N=C/c2cccs2)c1		active: 1.26 µM
CCOC(=O)c1oc2ccc(S(=O)(=O)Nc3ccc4c(c3)n(C)c(=O)n4C)cc2c1C		inconclusive [inhibitor, single point]
COC(=O)[C@@H]1C[C@]2(OC(=O)c3ccccc3)C=CC(=O)C[C@@H]2N1C(=O)OCc1ccccc1		inconclusive [inhibitor, single point]
CN(C)C(=O)c1cc(C(=O)c2ccc(C(F)(F)F)cc2)c[nH]1	inactive: -18.5%	

Compound	activity, negative = inhibition	Potency
CCOCCCNC(=O)CN1C(=O)/C(=C/c2ccccc2)Sc2ccccc21		inconclusive [activator, single point]
Cc1ccc2[nH]c3ccccc3c(=O)c2c1		inconclusive [inhibitor, single point]
COc1ccc(CN=C2NN=C(c3cccc(OC)c3)CS2)cc1	inactive: -22.8%	
Cc1cc2c(cc1C)CSC(c1ccc3ccccc3c1O)SC2	inactive: -10.8%	
Cc1ccc(OCCn2c(NC(=O)c3ccco3)nc3ccccc32)cc1		active: 2 µM
COc1ccccc1N1CCN(Cc2ccc(Br)o2)CC1		active: 20 µM
O=C(O)C1CSC(c2coc3ccccc3c2=O)N1 (stereo not drawn)		inconclusive [activator, single point]
Cc1cc(NNC(=O)Nc2cccc(Cl)c2)nc2c1c(C)nn2C		active: 11.2 µM
Cn1cc(Cl)c(C(=O)Nc2nc3ccc(Cl)cc3s2)n1	inactive: 16.8%	
CSCc1nnc(NC(=O)c2ccc(S(=O)(=O)N3CCCCC3C)cc2)o1 (stereo not drawn)		active: 1.41 µM
COc1ccc(C2SCCN2C(=S)Nc2cccc(C(F)(F)F)c2)cc1 (stereo not drawn)		inconclusive [inhibitor, single point]
COc1cc(C)c(S(=O)(=O)NOCc2ccccc2)c(C)c1C	inactive: -16.3%	
Cc1[nH]n(-c2ccccc2)c(=O)c1/C=N/N1C(=O)c2ccc3c4c(ccc(c24)C1=O)CC3		inconclusive [inhibitor, single point]
CCOC(=O)Cc1csc(NC(=O)COc2ccc(C)c(C)c2)n1		inconclusive [activator, single point]
COc1cccc(C(=O)NC(=S)Nc2ccc3oc(=O)ccc3c2)c1		inconclusive [inhibitor, single point]
NNC(=O)COc1ccc(F)cc1		inconclusive [inhibitor, single point]
COc1cc(/C=C2\SC(=S)N(NC(=O)c3ccc(O)c(OC)c3)C2=O)ccc1O		inconclusive [inhibitor, partial curve]
CN(C)c1ncc(S(=O)(=O)c2ccccc2)c(N)n1	inactive: -9.82%	
O=C(CSc1nc(C2CC2)nc2c1cnn2-c1ccccc1)Nc1c[nH]c(=O)[nH]c1=O		inconclusive [inhibitor, single point]
COc1cc(OC)cc(-c2nc3ccccc3s2)c1	inactive: 0.0701%	
Cc1ccc(NC(=O)C(Cc2ccccc2)NC(=O)OCc2ccccc2)cc1C (stereo not drawn)		inconclusive [activator, single point]
COc1cc(NC(=O)C2CCCO2)c(OC)cc1Cl (stereo not drawn)	inactive: 3.77%	
O=c1[nH]sc2ccccc12		active: 3.55 µM
CC(C)CC(=O)N1CC(C)N(C(=O)CC(C)C)CC1C (stereo not drawn)	inactive: 2.29%	
CCCCCOC(=O)Nc1ccc(S(=O)(=O)Nc2cccc([N+](=O)[O-])c2)cc1		inconclusive [inhibitor, single point]
O=c1ccc(N=Nc2ccccc2)ccc1O		active: 3.55 µM

Compound	activity, negative = inhibition	Potency
Cc1ccc(C)c(NC(=O)CN(C)C(=O)[C@@H](NC(=O)c2ccc(C(C)(C)C)cc2)C(C)C)c1		inconclusive [inhibitor, single point]
O=C(Nc1ccc(CN2CCCCC2)cc1)Nc1ccc(Br)cc1Cl	inactive: -12.8%	
Cc1ccc2nc(-c3cccc(Br)c3)cc(C(=O)NC3=NCCS3)c2c1		active: 4.47 µM
CCCn1c(=O)c2c(C(=O)OCC)cc(-c3ccco3)nc2n(CCC)c1=O	inactive: 14%	
O=S1(=O)C=C(SCCN2CCCCC2)c2ccccc21	inactive: -26%	
COc1ccccc1OCC(=O)N/N=C1\CCc2ccccc21		inconclusive [inhibitor, single point]
COCCN1CCN(C(=O)c2cc(COc3ccc(Cl)cc3OC)on2)CC1		inconclusive [activator, single point]
CCn1nc(NC(=O)c2ccccn2)c2cc3cccc(C)c3nc21		active: 3.98 µM
COC(=O)C1=C(C)N(Cc2ccccc2)C(=NCc2ccc(OC)cc2)N[C@H]1c1cccc(F)c1	inactive: -22.9%	
CCCOC(=O)C1=C(C)NC2=C(C(=O)CCC2)C1c1cccc(OC)c1OC (stereo not drawn)	inactive: 0.213%	
CC(CNCC1CCCO1)COc1cccc2ccccc12 (stereo not drawn)	inactive: 3.22%	
COc1cc(NC(=O)c2ccc([N+](=O)[O-])o2)ccc1NC(=O)c1ccco1		inconclusive [inhibitor, partial curve]
Cc1ccc(C(=O)Nc2ccc(S(=O)(=O)N3CCCC3)cc2)s1		inconclusive [inhibitor, single point]
CCn1c(=N)n(CC(=O)c2cccc(OC)c2)c2ccccc21		inconclusive [inhibitor, full curve]
COc1ccc(S(=O)(=O)N(Cc2cc3ccc(OC)cc3[nH]c2=O)CC2COCCO2)cc1 (stereo not drawn)		inconclusive [inhibitor, single point]
CCN1CCN(CCCNC(=O)c2ccccc2NC(=O)C2=C(C)OCCS2)CC1	inactive: -14.4%	
COc1ccc(Oc2ncc3nc(-c4ccc(F)cc4)c(=O)n(C[C@H]4CCCO4)c3n2)cc1		inconclusive [inhibitor, partial curve, poor fit]
COc1ccccc1OCC(=O)NN=C(Cc1ccccc1)Cc1ccccc1		inconclusive [inhibitor, full curve, poor fit]
O=C(NC(=S)Nc1ccccc1[N+](=O)[O-])c1ccco1		inconclusive [inhibitor, partial curve, poor fit]
N#CNC(=Nc1cccc(C(F)(F)F)c1)SCc1ccc(C(=O)O)cc1	inactive: -5.47%	
CN(CCC#N)S(=O)(=O)c1ccc2[nH]cc(C(=O)NCCc3ccccc3)c(=O)c2c1	inactive: -1.45%	
CC(NC(=O)NNC(N)=S)(C(F)(F)F)C(F)(F)F		active: 20 µM
Cc1cc(N2CCN(c3ccc(F)cc3)CC2)nc(-c2ccccc2)n1	inactive: -3.85%	
CC(=O)c1ccc(NS(=O)(=O)c2ccc(N)cc2)cc1		inconclusive [activator, single point]
Cc1ccc2nc(-c3ccc(O)c(O)c3)cn2c1		inconclusive [inhibitor, single point]
Cc1ccc(O)c(NC(=O)c2ccc3c(c2)C(=O)N(Cc2cccnc2)C3=O)c1		inconclusive [activator, full curve, poor fit]
